These results are taken from article PMC4336329 (PLoS ONE, 2015).

Among all 310,000 compounds or so, about 2,200 (0.71%) showed an effect of 50% or more. The effect is printed as a negative number. This is one part of the list.

For this experiment, the target named is human ether-à-go-go-related gene (hERG) potassium channel (human, UniProt Q12809). As to the kind of experiment: primary screen, population patch clamp on CHO cells stably expressing hERG.
Chain of human ether-à-go-go-related gene (hERG) potassium channel (Q12809 whole entry, looked up): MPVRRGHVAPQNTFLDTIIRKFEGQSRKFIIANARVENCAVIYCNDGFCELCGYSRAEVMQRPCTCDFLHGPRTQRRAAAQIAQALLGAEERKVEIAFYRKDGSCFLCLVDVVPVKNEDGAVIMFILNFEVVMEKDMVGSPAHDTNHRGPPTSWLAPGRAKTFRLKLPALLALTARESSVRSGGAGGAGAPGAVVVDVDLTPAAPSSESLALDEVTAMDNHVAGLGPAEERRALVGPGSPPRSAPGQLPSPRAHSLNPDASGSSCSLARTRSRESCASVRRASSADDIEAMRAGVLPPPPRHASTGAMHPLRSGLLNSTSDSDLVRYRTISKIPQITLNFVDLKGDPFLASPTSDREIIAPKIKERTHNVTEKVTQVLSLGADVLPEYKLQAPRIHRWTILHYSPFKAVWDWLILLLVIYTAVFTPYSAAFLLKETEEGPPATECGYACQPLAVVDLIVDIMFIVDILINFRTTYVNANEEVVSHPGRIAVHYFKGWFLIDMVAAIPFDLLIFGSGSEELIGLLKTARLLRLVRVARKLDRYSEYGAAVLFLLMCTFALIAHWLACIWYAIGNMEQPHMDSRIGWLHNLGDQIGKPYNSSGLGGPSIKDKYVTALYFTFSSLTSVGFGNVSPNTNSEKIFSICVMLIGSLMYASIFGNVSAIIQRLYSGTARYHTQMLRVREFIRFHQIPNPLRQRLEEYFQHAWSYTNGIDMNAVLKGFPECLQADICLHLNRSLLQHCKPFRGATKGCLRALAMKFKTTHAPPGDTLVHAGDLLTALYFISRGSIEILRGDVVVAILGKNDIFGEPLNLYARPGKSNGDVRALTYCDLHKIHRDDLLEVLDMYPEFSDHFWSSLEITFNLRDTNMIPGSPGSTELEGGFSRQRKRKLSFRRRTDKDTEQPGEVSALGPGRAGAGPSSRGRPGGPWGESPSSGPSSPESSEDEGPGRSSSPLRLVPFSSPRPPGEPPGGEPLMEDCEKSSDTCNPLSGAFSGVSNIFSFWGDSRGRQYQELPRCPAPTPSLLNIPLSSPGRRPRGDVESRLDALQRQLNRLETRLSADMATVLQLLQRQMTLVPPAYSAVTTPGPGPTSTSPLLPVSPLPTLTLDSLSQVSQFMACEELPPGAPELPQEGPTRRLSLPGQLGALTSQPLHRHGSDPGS
In the case of `CS(=O)(=O)c1ccc(Cl)c(NC(=O)COc2ccc3c(c2)CCC3)c1`, the “hERG current change (%, negative = inhibition) at 1uM” value is listed as -0.059%.
Then `COc1ccc(C(C)(C)C)cc1NS(=O)(=O)c1cccc2cccnc12`, with 13.2%.
Then `Cc1cc(N)n(-c2ccccc2)n1`, with 11.4%.
Turning to `O=C(CSc1nnc(Cc2cccs2)n1C1CC1)NC1CCS(=O)(=O)C1` (stereo not shown), the “hERG current change (%, negative = inhibition) at 1uM” value came out at 11.2%.
Then `Cc1nc(NC(=O)c2ccccc2)sc1Cc1ccc2c(c1)OCO2`, with 11.5%; and `COc1cc(NS(=O)(=O)c2ccc(NC(=O)NC3CCCCC3)cc2)nc(OC)n1`, with 6.08%.
As for `O=C(CN1CCOCC1)Nc1nc2cc([N+](=O)[O-])ccc2s1`, the “hERG current change (%, negative = inhibition) at 1uM” value was found to be 0.248%.
On to `Cc1ccc(C(=O)CN2C(=O)C(C)Oc3ccccc32)cc1` (stereo not shown), for which the “hERG current change (%, negative = inhibition) at 1uM” value is on record as 5.74%.
As to `O=C(NCCS(=O)(=O)NCc1ccccc1Cl)c1ccccc1`, the “hERG current change (%, negative = inhibition) at 1uM” value is 4.38%.
Consider `CCCCn1c(N)c(N(CCOC)C(=O)CCc2ccc(OC)cc2)c(=O)[nH]c1=O`, for which the “hERG current change (%, negative = inhibition) at 1uM” value is 5.93%.
Then `C=CCNC(=O)COC(=O)c1ccc(Cl)c(S(N)(=O)=O)c1`, with 12%.
Turning to `CN(CC(=O)NCc1ccccn1)S(=O)(=O)c1ccccc1`, the “hERG current change (%, negative = inhibition) at 1uM” value stood at 2.56%.
Next, `Cc1nc(NCc2ccco2)[nH]c(=O)c1CCC(C)C`: 6.9%; `CC(OC(=O)COc1ccccc1[N+](=O)[O-])C(=O)Nc1ccc(N2CCOCC2)cc1` (stereo not shown): 12.4%; `COc1cc(CNC2CCCC2)cc(Cl)c1OCc1ccc(F)cc1.Cl`: 2.49%.
Then `CN(Cc1ccccc1)C(=O)CN1C(=O)NC2(CCCC2)C1=O`, with -0.477%; and `CCOC(=O)C1=NN(c2ccccc2C)C2=NC(C)=C(C(=O)OC)C(c3cccs3)N12` (stereo not shown), with 7.41%.
As for `O=C(NCc1ccco1)/C(=C/c1cccc(C(F)(F)F)c1)c1nc2ccccc2[nH]1`, the “hERG current change (%, negative = inhibition) at 1uM” value came to 22.2%.
For the molecule `CCOCCCN(Cc1ccco1)S(=O)(=O)c1csc(C(N)=O)c1`, the “hERG current change (%, negative = inhibition) at 1uM” value is 20%.
Then `COc1cccc(C2NC(=S)NC(C)=C2C(=O)c2ccccc2)c1OC` (stereo not shown), with 14.2%.
Next, `CCCC(c1nnnn1Cc1ccccc1)N1CCC(C(N)=O)CC1.Cl` (stereo not shown): 6.46%.
Next, `O=CN1CCN(C(=O)c2ccccc2F)CC1`: 18%; `Cc1ccc(OS(=O)(=O)c2ccc(-c3csc(C)n3)s2)c(C)c1`: 14.9%.
Regarding `c1ccc2nc(OCCN3CC3)ccc2c1`, the “hERG current change (%, negative = inhibition) at 1uM” value is recorded as 6.14%.
Next, `O=S(=O)(NCC(c1cccnc1)N1CCN(c2ccccc2F)CC1)c1cccs1` (stereo not shown): -12.8%.
Then `O=C(NNS(=O)(=O)c1ccc(F)c(Cl)c1)c1cccc(S(=O)(=O)N2CCOCC2)c1`, with 28.8%.
As for `O=C(NCc1ccccc1)c1ccc2c(=O)n(CC3CCCO3)c(=S)[nH]c2c1` (stereo not shown), the “hERG current change (%, negative = inhibition) at 1uM” value turned out to be 12.6%.
Then `CN(CC(=O)Nc1ccc(S(=O)(=O)N2CCCC2)cc1)Cc1ccc(Cl)cc1Cl`, with 12.5%.
Next, `COc1ccc(CCNC(=O)C2CCN(S(=O)(=O)N3CC(C)CC(C)C3)CC2)cc1OC` (stereo not shown): 4.55%; `COC(=O)[C@@]12CCCCN1[C@H](c1ccc(-c3ccc4c(c3)OCO4)c(OC)c1)[C@@H]1C(=O)N(C)C(=O)[C@@H]12.O=C(O)C(F)(F)F`: 14.6%.
Then `Cc1ccc(S(=O)(=O)N2CCC(C(=O)NCCCn3ccnc3)CC2)cc1`, with 9.96%; and `Cc1ccc(C(=O)NC(=S)Nn2cnnc2)cc1`, with 8.47%; and `CCCCc1ccc(N=N/C(C(=O)Nc2ccccc2OC)=C(/C)O)cc1`, with -7.03%.
Consider `O=C(Nc1ccccc1)c1ccc(=O)n(Cc2ccc(F)c(F)c2)c1`, for which the “hERG current change (%, negative = inhibition) at 1uM” value amounted to 6.42%.
For the molecule `COc1ccc(OCc2cccc(C(=O)NN)c2)cc1`, the “hERG current change (%, negative = inhibition) at 1uM” value came to 9%.
Consider `CC(C)c1cc(C(=O)N/N=C/c2cccnc2)n[nH]1`, for which the “hERG current change (%, negative = inhibition) at 1uM” value is 11.7%.
Then `N#CC1=C(N)NC(=S)C(C(N)=O)C1c1ccccc1F` (stereo not shown), with 12.6%; and `Cc1cccc(C)c1NC(=O)NC1CC2CCC(C1)N2Cc1cccs1` (stereo not shown), with 17.5%.
As to `O=C(NCCc1ccccc1)C(c1cccs1)N(C(=O)c1csnn1)C1CC1` (stereo not shown), the “hERG current change (%, negative = inhibition) at 1uM” value is -28.6%.
`Cc1ccc(CNC(=O)CCc2nc3ccccc3c(=O)[nH]2)cc1`: the “hERG current change (%, negative = inhibition) at 1uM” value is 8.98%.
Next, `O=C(O)CCSc1nc2ccccc2n1CCOc1ccccc1`: 2.86%.
Then `CCNC(=S)NNC(=O)C(c1ccccc1)c1ccccc1`, with 1.4%.
Then `COc1cccc(CNC(=O)CN2C(=O)c3ccccc3S2(=O)=O)c1`, with 25.5%; and `CCN(CC(=O)Nc1c(F)cccc1F)C(=O)/C=C/c1ccc(OCC#N)c(OC)c1`, with -3.56%.
Consider `COc1cc(O)c(C(C)=O)c(CC(=O)O)c1`, for which the “hERG current change (%, negative = inhibition) at 1uM” value is recorded as 0.0868%.
On to `N#CC1(NC(=O)CN2C(=O)NC3(CCCCCC3)C2=O)CCCCC1`, for which the “hERG current change (%, negative = inhibition) at 1uM” value is on record as -0.329%.
As for `COc1ccc(CCNC(=O)c2cc(COc3c(C)cccc3C)on2)c(OC)c1`, the “hERG current change (%, negative = inhibition) at 1uM” value is -1.59%.
Next, `CC1=C(N2CCN(c3ncccn3)CC2)CCC1=O`: 5.68%; `O=C(CSc1nnc(-c2cccnc2)s1)Nc1ccccc1`: 12.8%; `CCC(OC(=O)C(NC(=O)c1ccccc1)c1ccccc1)C(=O)Nc1cc(C)on1` (stereo not shown): 18.2%.
Then `CCOc1ccccc1N1CCN(C(=O)c2cc[n+]([O-])cc2)CC1`, with 14.2%; and `Cc1no[n+]([O-])c1COc1ccccc1/C=N/n1nnnc1N`, with 15.3%.
On to `CCOc1cc(C(=O)NCC2CCCO2)cc(OCC)c1OCC` (stereo not shown), for which the “hERG current change (%, negative = inhibition) at 1uM” value was 0.71%.
Next, `COCCSc1nnc(NC(=O)c2cc(OC)c(OC)cc2[N+](=O)[O-])s1`: 18%; `Cc1cc(NC(=O)c2ccccc2)n(C(C)(C)C)n1`: 14.5%; `O=C(c1ccc(N2CCCC2=O)cc1)N1CCN(c2ccccc2)CC1`: 13.9%.
Next, `COc1ccc(OCC(=O)OCC(=O)Nc2ccc(S(=O)(=O)N3CCCCC3)cc2)cc1`: -0.323%.
`Cc1cc(OC(=O)c2ccco2)c2c3c(c(=O)oc2c1)CCCC3`: the “hERG current change (%, negative = inhibition) at 1uM” value is reported as 12.6%.
Then `Cc1ccc(C(=O)COc2cc(C)nc3nncn23)cc1`, with 13.3%; and `COC(=O)[C@@H](NC(=O)O[C@@H]1C(=O)c2cc(Br)ccc2O[C@H]1c1cccc(OC)c1)C(C)C`, with 7.25%; and `COc1ccc2oc(=O)c(N3C(=O)c4ccccc4C3=O)cc2c1`, with 27.2%.
Next, `O=C(OCC(=O)N1CCC(Cc2ccccc2)CC1)c1ccc[nH]c1=O`: 8.65%; `COc1cccc(C2C(=O)N(C3CCCCC3)CC(=O)N2Cc2ccc(F)cc2)c1` (stereo not shown): -15.7%.
Then `CCOc1ccc(-c2ccc(NS(=O)(=O)c3cc([N+](=O)[O-])c(C)c([N+](=O)[O-])c3)cc2)nn1`, with 6.87%; and `CN(c1ccccc1)c1ccc(/C=N/N2CCOCC2)cc1`, with 11.2%.
Regarding `CC(CC(=O)Nc1cc(C(F)(F)F)ccc1Cl)c1ccccc1` (stereo not shown), the “hERG current change (%, negative = inhibition) at 1uM” value is reported as 11.6%.
Then `COc1ccc(C2CCCN2C(=O)Nc2ccc(F)cc2)cc1OC` (stereo not shown), with 3.04%.
Then `O=c1[nH]c(C(F)(F)F)nc2ccc3ccccc3c12`, with 10.3%.
`COc1ccc(NC(=O)/C=C/c2cc(Br)ccc2OC)cc1`: the “hERG current change (%, negative = inhibition) at 1uM” value was determined as 14.2%.
With `COc1ccc(C(C(=O)NC2CCCC2)N(CCC(C)C)C(=O)CCC(=O)Nc2cc(C)on2)cc1` (stereo not shown), the “hERG current change (%, negative = inhibition) at 1uM” value was found to be 24.7%.
With `CCOC(=O)C1(Cc2cccc(Cl)c2)CCCN(C(=O)c2c(CC)noc2C)C1` (stereo not shown), the “hERG current change (%, negative = inhibition) at 1uM” value is 4.83%.
Then `O=C(CCC(=O)OCCCC(F)(F)C(F)(F)F)Nc1ccccc1`, with 14%; and `CCN(CC)C(=O)CSc1nc(N)c(-c2ccccc2)c(=O)[nH]1`, with 12.9%.
Next, `CS(=O)(=O)N(CC(=O)NCC1CCCO1)c1cc(Cl)ccc1Cl` (stereo not shown): 6.18%; `Cc1onc(-c2ccccc2)c1C(=O)Nc1nnc(CC(C)(C)C)s1`: 14.3%; `COc1ccc(C(=O)NC(=S)NNC(=O)c2ccc(O)cc2)cc1[N+](=O)[O-]`: 14.3%.
Next, `Cc1[nH]n(-c2ccc([N+](=O)[O-])cc2)c(=O)c1C=NCCc1c(C)[nH]c2ccccc12`: 15.2%; `Cc1ccc(NC(=O)C[n+]2cc(-c3ccccc3)n3c2CCC3)cc1.[Cl-]`: 2.87%.
Turning to `CCOc1cc2c(cc1OCC)C(c1ccc(F)cc1)NCC2` (stereo not shown), the “hERG current change (%, negative = inhibition) at 1uM” value amounted to 1.51%.
Take `CN(CC(=O)Nc1ccccc1Br)C(=O)CN(C)C1CCCCC1`: the “hERG current change (%, negative = inhibition) at 1uM” value worked out at 11.2%.
Next, `CC(O)C1CCC2C3CC[C@H]4CC(O)CCC4(C)C3CC3(OCCO3)C12C` (stereo partly shown): 0.154%; `O=C(NCCSCc1ccco1)Nc1cccc(Cl)c1`: 1.49%; `CCC(C)[C@H](NC(=O)NC1CCCc2ccccc21)C(=O)OC` (stereo partly shown): 12%.
`NS(=O)(=O)c1ccc(CCNC(=O)CCNS(=O)(=O)c2ccccc2C(F)(F)F)cc1`: the “hERG current change (%, negative = inhibition) at 1uM” value was 8.45%.
Consider `CC12CCC(C(=O)Nc3cccc(Cl)c3)(C(Br)C1=O)C2(C)C` (stereo not shown), for which the “hERG current change (%, negative = inhibition) at 1uM” value is listed as 7.65%.
Then `CC(C)Oc1ccc(CNCCC2(C(C)C)CCOC(C)(C)C2)cc1` (stereo not shown), with -8.86%.
As to `COc1ccc(CCNC(=O)CSc2nnc(CNC(=O)c3ccccc3F)o2)cc1OC`, the “hERG current change (%, negative = inhibition) at 1uM” value was determined as 12.3%.
Then `CCn1c(=O)c2ccccc2n(CC(=O)NC2CCCCC2)c1=O`, with 15.1%.
